We go through 96 molecules from PubChem BioAssay AID1159614 (National Center for Advancing Translational Sciences (NCATS), 2016).

Structures are written as SMILES. The whole screen tested about 45,000 compounds, of which about 65 (0.1%) were called active. Calls follow the shape of the dose curve; as a rule, active = well fitted activation curve with a large enough effect; inconclusive = small, poorly fitted or top-dose-only effect; inactive = no such curve, though single readings can be large or run the other way. The list shows a part of the results.

The assay deals with Galactocerebrosidase (Homo sapiens) (UniProt P54803). Nature of the assay: A Novel Cell-Based Assay to Identify Small Molecules for B -Galactocerebrosidase. Also: 0% is about no effect; nearly all actives have a fitted effect of over 65% in size. The following applies: 145M-Twi-hGALC-G270D cells (Twitcher mouse brain line with human GALC G270D), HMU-beta-Gal fluorescence, 48 h; series mostly up to 57.5 µM; activation: at the top concentration. In short, it runs like this: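 Brain-derived Twitcher mouse 145M-Twi cells stably expressing human GALC-G270D or wild-type GALC, treated live, then residual GALC activity read by fluorescence of HMU-b-Gal substrate (0.1 mM final) in citrate-phosphate buffer pH 5.2 with sodium taurocholate. Signal increase indicates enhancement.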
Chain of UniProt P54803 (P54803 whole entry, looked up): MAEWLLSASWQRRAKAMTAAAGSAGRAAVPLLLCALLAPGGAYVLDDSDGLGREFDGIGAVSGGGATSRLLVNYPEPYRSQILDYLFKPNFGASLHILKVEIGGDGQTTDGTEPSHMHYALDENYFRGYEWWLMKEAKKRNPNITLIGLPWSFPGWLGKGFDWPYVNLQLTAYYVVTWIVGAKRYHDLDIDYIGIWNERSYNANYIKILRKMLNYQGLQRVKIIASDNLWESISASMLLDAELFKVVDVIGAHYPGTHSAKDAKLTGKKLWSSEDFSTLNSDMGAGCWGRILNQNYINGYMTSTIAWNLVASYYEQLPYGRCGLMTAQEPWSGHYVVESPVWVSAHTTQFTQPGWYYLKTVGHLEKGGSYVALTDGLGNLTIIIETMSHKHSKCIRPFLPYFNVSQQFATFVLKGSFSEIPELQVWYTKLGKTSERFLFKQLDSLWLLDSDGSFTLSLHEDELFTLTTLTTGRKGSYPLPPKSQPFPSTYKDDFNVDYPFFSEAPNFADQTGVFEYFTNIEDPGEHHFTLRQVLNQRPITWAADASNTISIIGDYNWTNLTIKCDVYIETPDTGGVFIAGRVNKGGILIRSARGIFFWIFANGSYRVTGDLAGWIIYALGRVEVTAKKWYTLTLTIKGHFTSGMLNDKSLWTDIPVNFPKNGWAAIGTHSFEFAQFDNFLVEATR
As for `Clc1cccc(C2=NC(c3cccs3)=Nc3ccc(Br)cc3N2)c1`, the “activation” value is inactive: -6.3%. With `CCc1ccc(NC(=O)CN2C(=O)c3ccccc3Sc3ccc(C(=O)N4CCCC4)cc32)cc1`, the “activation” value is inactive: -0.892%.

On to `COc1ccc(CNC(=O)c2sc3nc4n(c(=O)c3c2C)CCCCC4)cc1`, for which the “activation” value was inactive: -12%. In the case of `COc1cccc(C(=O)CC2(O)C(=O)N(Cc3ccccc3)c3ccccc32)c1` (stereo unspecified), the “activation” value is inactive: -22.8%.

For the molecule `NC(=O)Cn1c(=O)n(CCCCCC(=O)NCc2ccc3c(c2)OCO3)c(=O)c2sccc21`, the “activation” value is inactive: -21.9%. For `COc1ccc(-c2c(C)c3cc(OC(=O)N4CCOCC4)ccc3oc2=O)cc1OC`, the “activation” value is inactive: -9.86%.

Turning to `CC(CNC(=O)c1ccc(Cn2c(=O)c3cccn3c3cccnc32)cc1)c1ccccc1` (stereo unspecified), the “activation” value is inactive: -9.34%. Next, `COc1cc(CNC(=O)c2ccc3nc(Cc4ccccc4)oc3c2)cc(OC)c1OC`: inactive: -4.79%; `Cc1ccccc1CS(=O)(=O)Cc1ccc(C(=O)NCCc2ccc(Cl)cc2)o1`: inactive: -12.9%; `CCOC(=O)C1CCCN(c2c(C(=O)c3ccccc3)cnc3ccc(F)cc23)C1` (stereo unspecified): inactive: -23%. `Cc1cn2c(=O)cc(COC(=O)c3ccc(NC(=O)c4ccccc4C)cc3)nc2s1`: the “activation” value is inactive: 1.59%.

In the case of `COc1ccc2c(c1)c1c(c(=O)n(-c3ccc(OC)c(OC)c3)c(=O)n1Cc1ccc(F)cc1)n2C`, the “activation” value was inactive: -20.2%.

For `CCc1cccc(NC(=O)Cn2c(=O)n3nc(-c4cccc(F)c4)nc3c3ccccc32)c1`, the “activation” value was inactive: -19.1%. As to `COc1cccc(Cn2nnc(C(=O)NCc3ccc(Cl)cc3Cl)c2N)c1`, the “activation” value was inactive: -5.54%.

For `CCOc1cc2[nH]c(=O)n(CCCCC(=O)N3CCN(c4ccccc4OC)CC3)c(=O)c2cc1OCC`, the “activation” value was inactive: -11.9%. For `COc1ccc(NC(=O)c2nnn(CC(=O)Nc3ccc(C)c(C)c3)c2N)cc1OC`, the “activation” value was inactive: -23.6%. On to `Cc1ccccc1C(=O)Nc1sc2c(c1C(=O)N1CCC(C)CC1)CCC(C)C2` (stereo unspecified), for which the “activation” value is inactive: -16.9%. Take `Cc1ccc(Cn2c(=O)c3cccnc3n(Cc3ccc(C)cc3)c2=O)cc1`: the “activation” value is inactive: -15.5%. In the case of `O=C(CN1C(=O)COc2ccc(S(=O)(=O)N3CCCCCC3)cc21)N1CCN(c2ccc(F)cc2)CC1`, the “activation” value is inactive: -17.6%. Consider `COc1ccc(-c2cc3nc(C)c(CCC(=O)NCCc4ccc(Cl)cc4)c(C)n3n2)c(OC)c1`, for which the “activation” value was inactive: 3.51%. `Cc1ccc(CSc2ncc(Cl)c(C(=O)Oc3ccccc3F)n2)cc1`: the “activation” value was inactive: -11.4%. Turning to `Cc1cn(C)c(CC(=O)Nc2cccc(C#N)c2)c1C(=O)O`, the “activation” value was inactive: -0.439%. Take `Cc1ccc(Cn2c(=O)n(-c3cccc(C(F)(F)F)c3)c(=O)c3c(C)c(C)sc32)c(C)c1`: the “activation” value was inactive: -15.2%. As for `Cc1ccccc1NC(=O)COc1ccc2oc3c(c2c1)CCCC3`, the “activation” value was inactive: -15.9%. For `CCOC(=O)N1CCC(NC(=O)c2cnn(-c3ccc(OC)cc3)c2C2CCN(C(=O)OC(C)(C)C)CC2)CC1`, the “activation” value is inactive: -3%. Then `Clc1ccc(-c2noc3ncnc(NC4CCCCC4)c23)cc1`, with inactive: 0.531%. For the molecule `Cc1ccc(CCNC(=O)c2cnc3c(-c4ccc(F)cc4)c(C)nn3c2C)cc1`, the “activation” value is inactive: -2.64%. Then `COc1ccc(OC)c(C2CC(=O)c3c([nH]c(C(=O)OCc4ccc(C)cc4)c3C)C2)c1` (stereo unspecified), with inactive: -13.9%; and `Cc1ccccc1OCCn1cc(C(=O)c2ccco2)c2ccccc21`, with inactive: -20%. As for `Cc1ccc(-c2nn3c(=O)cc(CN4CCN(C(=O)Nc5cccc(C(F)(F)F)c5)CC4)nc3s2)cc1`, the “activation” value is inactive: 0.492%. In the case of `Cc1ccc(-c2c(C(=O)N3CCN(c4ccc(F)cc4)CC3)oc(=O)c3ccccc23)cc1`, the “activation” value was inactive: -1.67%. `Cc1cc(C)cc(N2C(=O)N(Cc3cc(=O)n4ccccc4n3)c3ccccc3S2(=O)=O)c1`: the “activation” value is inactive: -22.4%. For the molecule `COc1cc(OC)c(OC)cc1CN1CCc2nc(N3CCN(C)CC3)ncc2C1`, the “activation” value was inactive: -14.5%. Then `CCc1nn(CC(=O)NCc2ccc(C)cc2)c(=O)c2cc3occc3n12`, with inactive: -19.7%. For the molecule `CCOc1ccc(CN2CCN(Cc3ccc4c(c3)c3ccccc3n4CC)CC2)cc1`, the “activation” value is inactive: -23.2%.

For the molecule `O=C(CCn1c(=O)c2ccccc2n(Cc2cccc(F)c2)c1=O)NCc1ccc2c(c1)OCO2`, the “activation” value was inactive: -7.16%.

For the molecule `Cc1cccc2c1-c1sc(C(=O)NCCCN3CCN(c4ccccc4F)CC3)cc1CO2`, the “activation” value was inactive: -16%. Then `COc1ccc(N2CCN(c3nc4ccc(C(=O)c5ccccc5)cc4n4cnnc34)CC2)cc1`, with inactive: -14.5%. As to `COc1ccc(C(=O)Nc2ccc3nc4c(c(Nc5ccccc5OC)c3c2)CCCC4)c(OC)c1`, the “activation” value was inactive: -8.1%. Regarding `CCCCN(CC)C(=O)c1c[nH]c2ccc(S(=O)(=O)N(C)c3ccc(Cl)cc3)cc2c1=O`, the “activation” value was inactive: 7.94%.

For `O=C1CC(c2c(F)cccc2Cl)c2c(ccc3ccccc23)N1` (stereo unspecified), the “activation” value was inactive: 0.16%. `COc1cc(C2c3c(oc4ccc(F)cc4c3=O)C(=O)N2Cc2ccc3c(c2)OCO3)ccc1O` (stereo unspecified): the “activation” value was inactive: -10.1%. Next, `COC(=O)c1cccnc1-n1c(=O)c2cccnc2n(CC(=O)Nc2cccc(C)c2)c1=O`: inactive: -18.5%; `COc1ccc(NC(=O)Cc2c(C(=O)O)[nH]c3ccccc23)cc1OC`: inactive: -0.821%. In the case of `O=C(CCS(=O)(=O)c1nc(-c2ccc3c(c2)OCO3)cc(C(F)(F)F)n1)Nc1ccc(Br)cc1`, the “activation” value was inactive: -20.7%. Consider `COc1ccc(CNC(=O)Cc2coc3ccc(C)cc23)cc1`, for which the “activation” value was inactive: -17.3%. Take `Cc1ccc(NC(=O)c2oc3ccc(S(=O)(=O)N4CCOCC4)cc3c2C)c(C)c1`: the “activation” value is inactive: -15%.

Regarding `CCOC(=O)c1c(C)n(C)c2ccc(O)cc12`, the “activation” value was inactive: -7.46%. With `CCN(c1ccccc1C)S(=O)(=O)c1nnc(NC(=O)c2ccccc2C)s1`, the “activation” value was inactive: -11.8%. Consider `Nc1cc(-c2ccncc2)c[nH]c1=O`, for which the “activation” value was inactive: -12.4%.

As to `COc1cc(NC(=O)N2CCSc3ccccc32)cc(OC)c1OC`, the “activation” value is inactive: -15.9%. Regarding `CC(C)Oc1ccc(CNC(=O)c2ccc3c(c2)nc2n3CCOC2)cc1`, the “activation” value was inactive: -24.7%.

For `Cc1cc(C)c(NC(=O)c2oc3c(c2C)-c2[nH]ncc2CC3)c(C)c1`, the “activation” value is inactive: -0.819%. In the case of `Cc1cccc(CN2CCN(CC(=O)NCCc3ccc(Cl)cc3)C2=O)c1`, the “activation” value was inactive: -16.9%.

In the case of `CCOc1cc2c(cc1OCC)C(CC(=O)O)N(C(=O)Nc1ccc(Br)c(C)c1)CC2` (stereo unspecified), the “activation” value is inactive: -18.4%.

Regarding `O=C(Nc1ccc(N2CCN(c3ccc(F)cc3)CC2)c(C(=O)O)c1)c1cccs1`, the “activation” value is inactive: -6.77%. Take `CCCCOc1ccc(C(=O)NCCc2sc3nc(-c4ccc(OC)cc4)nn3c2C)cc1`: the “activation” value was inactive: -11%. In the case of `CCOc1ccc(N(C)C(=O)C2CCN(S(=O)(=O)c3c(C)noc3/C=C/c3ccc(C)cc3)CC2)cc1`, the “activation” value was inactive: -29.1%. In the case of `Cc1ccc(NC(=O)/C=C/c2ccco2)cc1F`, the “activation” value is inactive: -19.3%. Next, `O=C(NCc1ccc(Cl)cc1)C1CCC(CNS(=O)(=O)c2ccccc2)CC1` (stereo unspecified): inactive: 12.9%. As to `CCN(CC)c1nn2c(=O)c(C(=O)NCCc3ccccc3C)cnc2s1`, the “activation” value was inactive: -1.75%. For `COc1ccc(Cl)cc1NC(=O)CSc1nc2c(oc3ccccc32)c(=O)n1Cc1ccco1`, the “activation” value is inactive: -3.43%. Regarding `Fc1ccccc1N1CCN(c2ncnc3onc(-c4ccc(Cl)cc4)c23)CC1`, the “activation” value was inactive: -25.6%. For `CCOC(=O)c1ccccc1NC(=O)CN1C(=O)CC(c2ccccc2)Sc2ccccc21` (stereo unspecified), the “activation” value is inactive: -2.18%. As for `Cc1ccc(C(=O)Nc2ccc(C(=O)O)cc2)cc1S(=O)(=O)N1CCC(C)CC1`, the “activation” value was inactive: 7.11%.

In the case of `Cc1cccc(-c2nc3scc(CCNS(=O)(=O)c4ccc(F)c(C(F)(F)F)c4)n3n2)c1`, the “activation” value was inactive: -9.89%. Then `CCCCOc1ccc(C(=O)NCc2cn3cccc(C)c3n2)cc1`, with inactive: -9.5%; and `Cc1c(C(=O)Nc2ccc(F)c(Cl)c2)sc2nc3n(c(=O)c12)CCC3`, with inactive: -19%. Then `COc1ccc(NC(=O)c2ccco2)cc1NC(=O)c1ccc(C#N)cc1F`, with inactive: -6.19%; and `COCCn1c(SCC(=O)c2ccc(C)cc2)nc2cc(C(=O)NC3CCCC3)ccc2c1=O`, with inactive: -9.77%; and `COc1ccccc1N1CCN(c2ncnc3c2cnn3-c2ccc(C)cc2)CC1`, with inactive: -7.36%. Turning to `FC(F)(F)c1cc(Nc2nc3ccccc3c3nncn23)ccc1Cl`, the “activation” value was inactive: -7.37%.

For `CCCCCSc1nnc2c(n1)[nH]c1c(C)cccc12`, the “activation” value is inactive: -7.05%.

For `O=C(NCCc1ccccc1)C1CCN(c2nc3ccccc3nc2C(F)(F)F)CC1`, the “activation” value is inactive: -1.06%. Next, `CCCNC(=O)c1cnn(-c2ccc(C)c(C)c2)c1C1CCN(C(=O)OC(C)(C)C)CC1`: inactive: -5.54%; `O=S(=O)(NCC(c1ccco1)N1CCN(c2ccccc2)CC1)c1cc(F)ccc1F` (stereo unspecified): inactive: -3.27%.

On to `Cc1cc(C)cc(N2CCn3c2nc2c3c(=O)n(Cc3c(F)cccc3Cl)c(=O)n2C)c1`, for which the “activation” value was inactive: 0.752%.

As to `O=C(C1CC1)N1CCc2cc(Br)cc(S(=O)(=O)Nc3ccc(F)c(F)c3)c21`, the “activation” value is inactive: -5.76%. `CCCOc1ccc(C(=O)N2CCC(c3nc4ccccc4s3)CC2)cc1`: the “activation” value was inactive: -19.6%. In the case of `CCc1ccc(/C=C(/C#N)c2nc(-c3ccc(C)cc3)cs2)cc1`, the “activation” value is inactive: -9.23%. Consider `CC(C)(C)OC(=O)N1CCC(c2c(C(=O)NCCN3CCOCC3)cnn2-c2cccc(Cl)c2)CC1`, for which the “activation” value is inactive: -21.6%.

On to `O=C(Cn1c(=O)c(CNc2ccccc2)cc2cc3c(cc21)OCCO3)Nc1ccccc1Cl`, for which the “activation” value is inactive: -24.3%. Take `CCc1ccc2oc(-c3ccc(C)c(NC(=O)Cc4ccccc4)c3)nc2c1`: the “activation” value was inactive: -12.8%. Then `O=c1c(S(=O)(=O)c2ccccc2)cn(Cc2ccccc2)c2cc(N3CCCC3)c(F)cc12`, with inactive: -35.6%.

As for `CCOc1ccc(N(Cc2ccccc2)C(=O)c2nc(SC)ncc2Cl)cc1`, the “activation” value was inactive: -13.4%.

`Cc1nn(C)c2c1c(C(F)(F)F)cc(=O)n2Cc1ccc(Br)cc1F`: the “activation” value is inactive: -9.44%. With `Cn1c(=O)c2c(nc(CN3CCN(c4ccccc4F)CC3)n2Cc2ccc(F)cc2)n(C)c1=O`, the “activation” value was inactive: -7.28%. Next, `CCOC(=O)C1CCN(CCC(=O)Nc2ccccc2OC)CC1`: inactive: 15.7%; `N#Cc1ccc(NC(=O)COCc2cc(-c3ccco3)on2)cc1`: inactive: 8.88%; `COc1ccc(OC)c(C2CC(=O)Nc3c2c(=O)[nH]c2nc4ccccc4n32)c1` (stereo unspecified): inactive: -5.78%. For `Cc1cccc(NC(=O)CSc2nc3n[nH]c(C)c3c(=N)n2-c2cccc(Cl)c2)c1`, the “activation” value was inactive: -8.24%. With `Cc1cc(C)cc(C(=O)NCCc2sc(-c3ccc(F)cc3)nc2C)c1`, the “activation” value was inactive: -3.11%. In the case of `Cc1cccc(NC(=O)N2CCC(N3CCN(Cc4ccccc4)C(=O)C3=O)CC2)c1C`, the “activation” value is inactive: -6.77%. With `CCOc1ccc(OCC(=O)NCCS(=O)(=O)N2CCN(c3cccc(Cl)c3)CC2)cc1`, the “activation” value was inactive: 0.118%. With `Cc1cccc(N2CCN(Cc3cc(=O)oc4cc(C)ccc34)CC2C)c1` (stereo unspecified), the “activation” value is inactive: -13.4%. Next, `CC(C)c1ccc(CNc2nc(-c3ccco3)nn2S(=O)(=O)c2ccc(F)cc2)cc1`: inactive: -2.12%.
